From paper PMC7819943, “Rice protein-binding microarrays: a tool to detect cis-acting elements near promoter regions in rice”
This is one part of the list.

target: T1, OsWOX13 (Oryza sativa, UniProt Q5QMM3 1-267); test: protein-binding microarray (RPBM); PBS, 2% BSA, 51.3 ng/ul salmon testes DNA, 50 uM zinc acetate, 200 nM TF, 25 C, 1 h; high values mean tight binding; details: protein: recombinant; tags: N-terminal polyhistidine and DsRed monomer fusion (pET32a); label: CyDye5-dUTP incorporated in the synthesized complementary strand; 3' TTTTT single-stranded linker to array surface; dsDNA, one strand shown
T1 sequence: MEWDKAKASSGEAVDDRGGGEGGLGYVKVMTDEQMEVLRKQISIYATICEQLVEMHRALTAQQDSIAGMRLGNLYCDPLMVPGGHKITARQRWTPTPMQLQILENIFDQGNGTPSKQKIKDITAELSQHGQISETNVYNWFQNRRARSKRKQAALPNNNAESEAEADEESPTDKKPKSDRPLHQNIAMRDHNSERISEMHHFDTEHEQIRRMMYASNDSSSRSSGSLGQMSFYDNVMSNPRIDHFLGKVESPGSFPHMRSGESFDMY
In short: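 Binding signal is reported as fluorescence intensity per feature (arbitrary units) from an Axon 4000B scanner. Incubation used 200 nM of each Ni–NTA-purified, N-terminally polyhistidine- and DsRed-fused transcription factor from E. coli BL21-CodonPlus on a double-stranded custom Agilent array for 1 h at 25 °C, with 50 µM zinc acetate in the buffer, followed by washing.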

Row | Sequence | binding signal
1 | TTTAATTATTCTCTAGCTACTTACTAAAGTTTGATATACTCGGAGTCACCTAGTGCAG | 6840 fluorescence intensity (a.u.)
2 | ACTAATGAAATGGCCAGATCTTATAAATCCTGGGTGGGTACGGAGTCACCTAGTGCAG | 4270 fluorescence intensity (a.u.)
3 | TTTCAAATCTAACTATAGTATAATTATAATATAATTTTACCGGAGTCACCTAGTGCAG | 8010 fluorescence intensity (a.u.)
4 | GATGCCTAATTGAATGTTCGTCGCAATCAGTTTCTAGGGACGGAGTCACCTAGTGCAG | 35000 fluorescence intensity (a.u.)
5 | TAGTAGCTTAATTGCTAGCTAGTGGTCACTGGTCAGTATACGGAGTCACCTAGTGCAG | 4360 fluorescence intensity (a.u.)
6 | AGGAATTATATTGTTAATTCCCCTCTCATTTGAGTGCTTTCGGAGTCACCTAGTGCAG | 8680 fluorescence intensity (a.u.)
7 | TTTGAGTGATTGACAGGAAACAAATCCACCACTATCTGTTCGGAGTCACCTAGTGCAG | 62400 fluorescence intensity (a.u.)
8 | GTTTCGCGGCCTGATTAGCTTTACACAATTGCTATGAAACCGGAGTCACCTAGTGCAG | 5420 fluorescence intensity (a.u.)
9 | AAATTAATTGCTCAATTTGTATGTAAATCACGAGACGAATCGGAGTCACCTAGTGCAG | 44400 fluorescence intensity (a.u.)
10 | GACGCGTCGGTGCTGATTGACTCGACGGCCGGCAACGTGGCGGAGTCACCTAGTGCAG | 22800 fluorescence intensity (a.u.)
11 | CACACAACATCATCAATCACCAGCTTGAGCTTATAACTGACGGAGTCACCTAGTGCAG | 11800 fluorescence intensity (a.u.)
12 | GTCGGATTGGTGCTTGCATGATCTGTTGGTAGATGGGCTGCGGAGTCACCTAGTGCAG | 3390 fluorescence intensity (a.u.)
13 | AGTTTCATAAATTACACTGTAACTTACAAGAAAATGCACTCGGAGTCACCTAGTGCAG | 4690 fluorescence intensity (a.u.)
14 | TCTGACCATTATTAATTTCTAGCAACTAGCAATTTTGTGCCGGAGTCACCTAGTGCAG | 6120 fluorescence intensity (a.u.)
15 | ATTGATTGATAAACCCTACTGCTTCTCGCCGCCGCCGCCGCGGAGTCACCTAGTGCAG | 55100 fluorescence intensity (a.u.)
16 | GAGTTAATCAATGCTATAAACTCCCTGATGCTTGATGAGACGGAGTCACCTAGTGCAG | 4250 fluorescence intensity (a.u.)
17 | TTCCAGGGTGACAAGATTAATTAATTCATTAAACTTGTCGCGGAGTCACCTAGTGCAG | 15400 fluorescence intensity (a.u.)
18 | AAAGCGAAAAGTCTAATTAACACATGATTAGTTAAGTATTCGGAGTCACCTAGTGCAG | 17200 fluorescence intensity (a.u.)
19 | AATTAAATAATTTAGAAGCACCGACAGAATACATGATGGTCGGAGTCACCTAGTGCAG | 4450 fluorescence intensity (a.u.)
20 | GTAGGTAATTAGTACCTCCGTCCCAAAATAAATGTAGCCTCGGAGTCACCTAGTGCAG | 11300 fluorescence intensity (a.u.)
21 | TTTAGATTGCTGCTATATTCTGAAATAGAGCGAGCGGGTACGGAGTCACCTAGTGCAG | 12100 fluorescence intensity (a.u.)

Row | Sequence | binding signal
22 | AATTAATCACTTGCTAATGACACGTCTCATTTTGCGTGCTCGGAGTCACCTAGTGCAG | 24000 fluorescence intensity (a.u.)
23 | GCCTAACTTAACTATTGAAATGGCCTATTTTCTTAGGCATCGGAGTCACCTAGTGCAG | 3330 fluorescence intensity (a.u.)
24 | GATGGATTATAATTAGGCTTAAAAGATTCGTCTCGTGATTCGGAGTCACCTAGTGCAG | 23000 fluorescence intensity (a.u.)
25 | GGTGATCTTGATTTGTTTAGCCCAGCTGTGGGGCAAGATCCGGAGTCACCTAGTGCAG | 11400 fluorescence intensity (a.u.)
26 | TTTATGTAATTATCATTTATTTTATTATGACTTGATTCGTCGGAGTCACCTAGTGCAG | 23700 fluorescence intensity (a.u.)
27 | CATTCTTAGTAAATTAATTAAGAAGTATGTCTAGACAAGGCGGAGTCACCTAGTGCAG | 9380 fluorescence intensity (a.u.)
28 | AAGATGATTTCTCCAGTAGTGGAACTGATAGGTAAAGGTCCGGAGTCACCTAGTGCAG | 14500 fluorescence intensity (a.u.)
29 | AATAGTTAACCATGACAATTATTCGAGTAATCTATAACACCGGAGTCACCTAGTGCAG | 4460 fluorescence intensity (a.u.)
30 | CACCTATCCACCACACATCTGATTGAATGAAAATTAGAAACGGAGTCACCTAGTGCAG | 16800 fluorescence intensity (a.u.)
31 | CATTTTAATAGTATAAATTTTGACAGAAATATTTGGATGTCGGAGTCACCTAGTGCAG | 4510 fluorescence intensity (a.u.)
32 | GGATTAATTACAGGACCTCTAATTTGTACACAGTGATGTACGGAGTCACCTAGTGCAG | 29500 fluorescence intensity (a.u.)
33 | AGATCAATCCATTTGATGGATTAAAATTTACAAATAGATGCGGAGTCACCTAGTGCAG | 10600 fluorescence intensity (a.u.)
34 | TTTGGATGTGATGTGATGTGATGGAAAGTTGGAAGTTAGGCGGAGTCACCTAGTGCAG | 4790 fluorescence intensity (a.u.)
35 | TAACTACCTCAAGGTATTGATTGATTATACTTTTGGTTCACGGAGTCACCTAGTGCAG | 16500 fluorescence intensity (a.u.)
36 | CCCCTTCAATCTCGATCTGTTAATTAAATCCATAGAAGAGCGGAGTCACCTAGTGCAG | 12800 fluorescence intensity (a.u.)
37 | ATCAAATAATTAAAAGAGCTTTCGAACCCAGGTTGTCTAGCGGAGTCACCTAGTGCAG | 4860 fluorescence intensity (a.u.)
38 | CTTTGGATTTCTGTGATATATGATTGAAATATAGCTGCCGCGGAGTCACCTAGTGCAG | 18700 fluorescence intensity (a.u.)
39 | ACATGTAATAGTTGTGATTAAATTGCAGCTGAACTTGTAGCGGAGTCACCTAGTGCAG | 11100 fluorescence intensity (a.u.)
40 | TCTCACGAGTATGATTGTTTGTTCCTCATACCACATTCCCCGGAGTCACCTAGTGCAG | 5060 fluorescence intensity (a.u.)
41 | TGTGAGATTGGTGGATCTCACATAAGCAATTTAATTGCCACGGAGTCACCTAGTGCAG | 6610 fluorescence intensity (a.u.)
42 | ATATATATATATATATATATAAATACATTAAATATATTTTCGGAGTCACCTAGTGCAG | 3380 fluorescence intensity (a.u.)
